The structures appear in SMILES notation. Screen size: about 310,000 compounds; about 2,200 (0.71%) showed an effect of 50% or more. Effects have a minus sign here. The list shows a part of the results.

human ether-à-go-go-related gene (hERG) potassium channel, sequence (Q12809 whole entry, looked up): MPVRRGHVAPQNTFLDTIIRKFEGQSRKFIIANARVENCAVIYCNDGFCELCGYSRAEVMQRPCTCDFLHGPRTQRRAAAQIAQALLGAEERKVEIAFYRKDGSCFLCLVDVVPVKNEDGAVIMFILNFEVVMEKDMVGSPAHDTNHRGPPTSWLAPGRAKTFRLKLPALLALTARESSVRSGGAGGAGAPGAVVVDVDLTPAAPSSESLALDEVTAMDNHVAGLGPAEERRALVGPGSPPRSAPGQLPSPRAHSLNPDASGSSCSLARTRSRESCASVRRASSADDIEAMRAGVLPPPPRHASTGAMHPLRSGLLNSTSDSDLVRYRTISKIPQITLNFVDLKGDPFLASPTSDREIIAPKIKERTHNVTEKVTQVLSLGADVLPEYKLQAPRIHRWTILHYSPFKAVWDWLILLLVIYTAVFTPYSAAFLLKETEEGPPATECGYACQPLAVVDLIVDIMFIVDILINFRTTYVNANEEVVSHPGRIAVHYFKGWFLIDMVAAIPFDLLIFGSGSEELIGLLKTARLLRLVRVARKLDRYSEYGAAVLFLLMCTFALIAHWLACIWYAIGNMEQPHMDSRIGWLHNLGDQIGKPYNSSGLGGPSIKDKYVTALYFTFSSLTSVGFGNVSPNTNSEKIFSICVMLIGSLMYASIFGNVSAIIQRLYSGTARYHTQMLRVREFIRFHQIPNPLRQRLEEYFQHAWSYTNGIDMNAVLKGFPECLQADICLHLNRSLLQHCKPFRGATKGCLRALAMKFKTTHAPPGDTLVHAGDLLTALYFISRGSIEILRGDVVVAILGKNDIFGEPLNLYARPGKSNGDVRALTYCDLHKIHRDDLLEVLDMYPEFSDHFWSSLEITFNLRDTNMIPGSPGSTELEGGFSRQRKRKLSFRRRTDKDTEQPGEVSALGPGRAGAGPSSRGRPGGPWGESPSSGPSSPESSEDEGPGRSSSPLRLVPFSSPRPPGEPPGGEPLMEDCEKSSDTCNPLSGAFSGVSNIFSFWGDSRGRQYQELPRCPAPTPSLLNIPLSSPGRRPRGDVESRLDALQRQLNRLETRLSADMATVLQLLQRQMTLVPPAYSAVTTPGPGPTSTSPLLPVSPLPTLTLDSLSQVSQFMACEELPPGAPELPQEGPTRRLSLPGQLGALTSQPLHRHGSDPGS

The experiment concerns the target human ether-à-go-go-related gene (hERG) potassium channel (human, UniProt Q12809). In words: primary screen, population patch clamp on CHO cells stably expressing hERG.
Take `CC(Cc1cccs1)NC(=O)Nc1ccc(Cl)cc1` (centres unmarked): the “hERG current change (%, negative = inhibition) at 1uM” value came to 7.83%.
As for `Cc1noc(C)c1COc1ccc(C(=O)OCC(=O)NCCN2C(=O)CSC2=O)cc1`, the “hERG current change (%, negative = inhibition) at 1uM” value is -0.892%.
On to `FC(F)(F)c1cccc(N2CCN(C3CC4CCC3C4)CC2)c1` (centres unmarked), for which the “hERG current change (%, negative = inhibition) at 1uM” value turned out to be 13.7%.
To `CCC(CO)Oc1cc(NC(=O)c2ccccc2)c2ncn(C(C)C)c2c1` (centres unmarked) belongs 9.51%; to `Cc1cc(NS(=O)(=O)c2ccc(NC(=O)CCCOc3ccccc3C)cc2)no1`, 6.24%.
For the molecule `CCN(CC)CCNC(=O)c1cn(CC)c2ccc(S(=O)(=O)N(C)C3CCCCC3)cc2c1=O`, the “hERG current change (%, negative = inhibition) at 1uM” value stood at 9.42%.
As to `O=C(c1ccccc1)N1CCN(C(=O)c2ccccc2Br)CC1`, the “hERG current change (%, negative = inhibition) at 1uM” value is 14.6%.
In the case of `Cc1ccc(/C=C2\SC(=S)N(Cc3ccccc3)C2=O)o1`, the “hERG current change (%, negative = inhibition) at 1uM” value was determined as 10.3%.
For the molecule `CCc1cc(=S)n2c([nH]c3ccccc32)c1C#N`, the “hERG current change (%, negative = inhibition) at 1uM” value came to 23%.
Take `c1ccc(CNc2ncnc3sccc23)cc1`: the “hERG current change (%, negative = inhibition) at 1uM” value is 11.6%.
As for `CCNc1c(C(=O)O)ccc2c1C(=O)c1ccccc1C2=O`, the “hERG current change (%, negative = inhibition) at 1uM” value is given as 18.7%.
Next, `CC1CCCC(NC(=O)c2cccc(S(=O)(=O)N3CCCCC3)c2)C1C` (centres unmarked): 5.31%; `COc1ccc(CCNC(=O)Cn2c(=O)cnc3ccccc32)cc1`: -7.02%.
As for `Cc1ccc(NC(=O)Nc2ccc([N+](=O)[O-])cc2)nc1`, the “hERG current change (%, negative = inhibition) at 1uM” value is reported as 8.38%.
Turning to `CCCC[n+]1ccn(-c2nc3ccccc3nc2[N-]S(=O)(=O)c2ccc(C)cc2)c1`, the “hERG current change (%, negative = inhibition) at 1uM” value is listed as 1.49%.
Regarding `CC(C)Cc1nnc(NC(=O)c2cc3c(s2)CCC3)s1`, the “hERG current change (%, negative = inhibition) at 1uM” value is given as 15.9%.
Turning to `Cc1ccc(C)c(OCCCC(=O)N2CCOCC2)c1`, the “hERG current change (%, negative = inhibition) at 1uM” value was -16.2%.
Turning to `O=C(Nc1sc2c(c1C(=O)NCC(O)CO)CCCC2)c1ccccc1` (centres unmarked), the “hERG current change (%, negative = inhibition) at 1uM” value was 11%.
For `c1nc(N2CCOCC2)c2c3c(sc2n1)CCCC3`, the “hERG current change (%, negative = inhibition) at 1uM” value was 7.09%.
With `CC(=O)N1CCN(C(=O)C2(NC(=O)Nc3ccccc3Cl)CCCCC2)CC1`, the “hERG current change (%, negative = inhibition) at 1uM” value was 14.2%.
Turning to `O=C(C1CCN(c2nnnn2-c2ccccc2)CC1)N1CCN(c2ccccc2)CC1`, the “hERG current change (%, negative = inhibition) at 1uM” value is -0.0552%.
For `CCCc1cc(=O)[nH]c(N2CCN(Cc3ccc4c(c3)OCO4)CC2)n1`, the “hERG current change (%, negative = inhibition) at 1uM” value was found to be 1.94%.
In the case of `O=C(O)c1ccc(COc2c(F)c(F)c(F)c(F)c2F)o1`, the “hERG current change (%, negative = inhibition) at 1uM” value is -1.1%.
Take `O=C(NCc1n[nH]c(=S)n1-c1ccc(Cl)c(Cl)c1)c1ccco1`: the “hERG current change (%, negative = inhibition) at 1uM” value was determined as 18.3%.
To `Cc1ccc(CNC(=O)COC(=O)C2CCN(S(=O)(=O)c3cccs3)CC2)cc1` belongs -13.2%; to `O=c1n(-c2ccc(Br)cc2)cnn1-c1ncccc1[N+](=O)[O-]`, 7.74%; to `N#Cc1ccncc1Sc1ccc(Cl)cc1`, 9.46%.
For the molecule `COc1ccc(S(=O)(=O)NCC2CCC(C(=O)NCc3ccco3)CC2)cc1` (centres unmarked), the “hERG current change (%, negative = inhibition) at 1uM” value amounted to 16.1%.
In the case of `CC(C)OCCCNC(=O)c1sc(=S)n(C)c1N`, the “hERG current change (%, negative = inhibition) at 1uM” value was determined as 1.04%.
Take `O=C(O)Cn1c(SCCOc2ccccc2)nc2ccccc21`: the “hERG current change (%, negative = inhibition) at 1uM” value came out at 4.29%.
Next, `CCCCCN(C(=O)NC(=O)Nc1ccccc1C)S(C)(=O)=O`: 11.3%.
To `CCN(CC)S(=O)(=O)c1ccc(Cl)c(NC(=O)COC(=O)c2cc(-c3ccccc3Cl)nc3ccccc23)c1` belongs 11.3%; to `CN(C)C(=O)c1cc2cc(Br)ccc2s1`, 6.96%; to `C/C(=N\NC(=O)c1nnn(-c2nonc2N)c1CN1CCc2ccccc21)c1ccccc1O`, 15.2%.
In the case of `CCN1C(=O)[C@H]2[C@@H](c3ccc(Cl)cc3)N3C(=O)CN(CC4CC4)C(=O)[C@@]3(Cc3ccccc3)[C@H]2C1=O`, the “hERG current change (%, negative = inhibition) at 1uM” value is recorded as -14%.
As for `O=C(N/N=C/c1cn(-c2ccccc2)nc1-c1ccc(F)cc1)c1ccc(Br)o1`, the “hERG current change (%, negative = inhibition) at 1uM” value turned out to be 22.1%.
Next, `O=C(CCc1nc(-c2ccccc2F)no1)NC1CCCCC1`: 13.4%; `COc1ccc2nc(NC(=O)CCc3cc(OC)c(OC)c(OC)c3)sc2c1`: 6.05%; `C/C(=N\Nc1nc(N2CCOCC2)nc(N2CCOCC2)n1)c1cccc([N+](=O)[O-])c1`: 17.5%.
In the case of `CCOc1ccc2nc(SC3CC(=O)N(c4ccc(C)cc4)C3=O)sc2c1` (centres unmarked), the “hERG current change (%, negative = inhibition) at 1uM” value was -9.93%.
For `COc1ccccc1CC(=O)N1CCN(c2ccccc2F)CC1`, the “hERG current change (%, negative = inhibition) at 1uM” value is on record as 4.18%.
As to `CC(=O)Nc1ccc(/C=C2\CCc3ccccc3C2=O)cc1`, the “hERG current change (%, negative = inhibition) at 1uM” value is on record as 11.9%.
As to `COc1ccc(-c2cc(C(=O)NCCCN3CCOCC3)c3ccccc3n2)cc1OC`, the “hERG current change (%, negative = inhibition) at 1uM” value was found to be 3.09%.
Consider `O=C(c1ccccc1)N1CCCN(c2nccc(C(F)(F)F)n2)CC1`, for which the “hERG current change (%, negative = inhibition) at 1uM” value worked out at 8.86%.
`O=C(CCC(=O)c1ccc(F)cc1)NCC1(N2CCCCC2)CCCCC1`: the “hERG current change (%, negative = inhibition) at 1uM” value is given as -7.18%.
As for `CC1(C)NC(=O)N(CC(=O)N2CCN(c3cccc(C(F)(F)F)c3)CC2)C1=O`, the “hERG current change (%, negative = inhibition) at 1uM” value came out at 13.4%.
Next, `C=C1CCC[C@]2(C)C[C@H]3OC(=O)C(CNCCN(CC)CC)[C@H]3CC12.O=C(O)C(=O)O` (some centres unmarked): 17.9%; `COc1ccc(S(=O)(=O)Nc2cccnc2)cc1OC`: 10.4%; `CCOc1ccc(OCCCC(=O)ON=C(N)c2ccccc2Cl)cc1`: 12.7%.
Turning to `Cc1ccc2cccc(OCC(=O)NCc3ccco3)c2n1`, the “hERG current change (%, negative = inhibition) at 1uM” value is given as -14.3%.
Turning to `COc1cccc(CCNc2ccc(N3C(=O)CC(C)C3=O)cc2[N+](=O)[O-])c1` (centres unmarked), the “hERG current change (%, negative = inhibition) at 1uM” value was 13.7%.
As to `COc1ccc(C(=O)NCCOc2ccccc2Cl)c(OC)c1OC`, the “hERG current change (%, negative = inhibition) at 1uM” value is 11.4%.
As to `CCOC(=O)C1CCN(S(=O)(=O)c2ccc(-c3ccc(=O)[nH]n3)o2)CC1`, the “hERG current change (%, negative = inhibition) at 1uM” value was -22.4%.
As to `CCOC(=O)c1c(NC(=O)CSc2nnc(-c3ccncc3)n2Cc2ccco2)sc(C)c1C`, the “hERG current change (%, negative = inhibition) at 1uM” value was 5.8%.
Consider `N/C(CN1CCCC1=O)=N\OC(=O)c1ccccc1Cl`, for which the “hERG current change (%, negative = inhibition) at 1uM” value was determined as 0.703%.
Next, `O=C(COc1ccccc1)N1CCN=C1c1ccccc1`: -41.6%.
For the molecule `O=C(C1CCN(Cc2ccccc2O)CC1)N1CCN(Cc2ccc3c(c2)OCO3)CC1`, the “hERG current change (%, negative = inhibition) at 1uM” value is on record as 8.96%.
Next, `COCC(=O)Nc1nnc(CCc2ccccc2)s1`: 2.38%; `Cc1ccc(-c2nnc(-c3ccccc3)c(N3CCOCC3)n2)cc1`: 1.89%; `CCCCCC(=O)Oc1cccc(N2C(=O)C3CCCCC3C2=O)c1` (centres unmarked): 17.9%.
As for `Cc1cccc(Nc2nnc(SCC(=O)N(C)C3CCS(=O)(=O)C3)s2)c1C` (centres unmarked), the “hERG current change (%, negative = inhibition) at 1uM” value came to 1.93%.
For `CN(C(=O)CSc1nc(-c2ccccc2)cn1N)C(c1ccccc1)c1ccccc1`, the “hERG current change (%, negative = inhibition) at 1uM” value is reported as 12%.
Take `O=C(/C=C/c1ccco1)NC(=S)Nc1ccc(N2CCOCC2)c(Cl)c1`: the “hERG current change (%, negative = inhibition) at 1uM” value is -1.05%.
Take `CS(=O)(=O)N(CC(=O)O)c1cccc(Cl)c1`: the “hERG current change (%, negative = inhibition) at 1uM” value turned out to be 9.42%.
For the molecule `CC(C)(C)C(=O)CSc1nc2ncc(Br)cc2[nH]1`, the “hERG current change (%, negative = inhibition) at 1uM” value turned out to be 3.68%.
Turning to `CCC(Sc1nc2ccc(C)cc2[nH]1)C(=O)O` (centres unmarked), the “hERG current change (%, negative = inhibition) at 1uM” value stood at 9.83%.
For `Oc1ccc(C[C@H]2CNCCN2CCc2cc(C(F)(F)F)cc(C(F)(F)F)c2)cc1`, the “hERG current change (%, negative = inhibition) at 1uM” value is -2.03%.
Take `Br.O=C(Cn1c(NCCCO)nc2ccccc21)c1ccc([N+](=O)[O-])cc1`: the “hERG current change (%, negative = inhibition) at 1uM” value was -3.14%.
Regarding `COC(=O)c1ccc(-n2c(C)nc(=O)c(-c3ccccc3)c2C)cc1`, the “hERG current change (%, negative = inhibition) at 1uM” value amounted to 9.49%.
For the molecule `COc1ccc(NC(=O)CSc2nnc(C3CCCCC3)n2-c2ccccc2)cc1`, the “hERG current change (%, negative = inhibition) at 1uM” value was found to be 6.01%.
Regarding `Clc1ccc(-c2csc(N/N=C/c3ccc4c(c3)OCO4)n2)cc1`, the “hERG current change (%, negative = inhibition) at 1uM” value came to 1.89%.
With `Cc1nnc(SCC(=O)Nc2ccc(N3CCN(S(C)(=O)=O)CC3)cc2)o1`, the “hERG current change (%, negative = inhibition) at 1uM” value was 11.3%.
Next, `Cc1nc2cc(-c3ccc(Br)cc3)[nH]n2c(=O)c1Cl`: 18.6%; `O=C(NCc1ccc(F)cc1)C1CCC(=O)N1CCc1ccccc1` (centres unmarked): 1.76%.
For `O=C(N/N=C/c1ccco1)C1CCCC1`, the “hERG current change (%, negative = inhibition) at 1uM” value is recorded as 17.2%.
Next, `CCOC(=O)C1(CCCc2ccccc2)CCN(C(=O)C(C)n2cncn2)CC1` (centres unmarked): 0.0335%.
Take `COc1cccc(CNC(=O)Cc2c(C(=O)O)[nH]c3ccccc23)c1`: the “hERG current change (%, negative = inhibition) at 1uM” value amounted to 9.07%.
For `C=C(C)[C@@H]1CC[C@]2(C(=O)O)CC[C@]3(C)[C@H](CC[C@@H]4[C@@]5(C)CC[C@H](O)C(C)(C)[C@@H]5CC[C@]43C)[C@@H]12`, the “hERG current change (%, negative = inhibition) at 1uM” value is listed as 0.617%.
Next, `CCOc1ccc(C(=O)NCC(=O)N2CCN(c3ccc(C(F)(F)F)cn3)CC2)cc1`: 7.6%.
For `O=S(=O)(c1ccccc1)N1CCN(CCO)CC1`, the “hERG current change (%, negative = inhibition) at 1uM” value came to 8%.
On to `CCCCNC(=O)Nc1ccccc1CC`, for which the “hERG current change (%, negative = inhibition) at 1uM” value is listed as 11.2%.
Regarding `CC1CCN(Cc2c(C(=O)N/N=C/c3ccc(C(C)C)cc3)nnn2-c2nonc2N)CC1`, the “hERG current change (%, negative = inhibition) at 1uM” value turned out to be 11.6%.
Regarding `CC(=O)Nc1ccc(S(=O)(=O)Nc2ccc(NC(=O)c3ccco3)cc2)cc1`, the “hERG current change (%, negative = inhibition) at 1uM” value was 8.53%.
As to `CC1(C)Cc2c(cnn2-c2ccc(F)cc2)C(NC(=O)C2=NNC(=O)CC2)C1` (centres unmarked), the “hERG current change (%, negative = inhibition) at 1uM” value is recorded as -52.1%.
With `S=C(NCCc1ccccc1)Nc1ccccn1`, the “hERG current change (%, negative = inhibition) at 1uM” value stood at 14.6%.
To `Nc1ccccc1C#Cc1cnccn1` belongs 12%.
To `CC1CN(CCCCOc2ccc(F)cc2)CC(C)O1.O=C(O)C(=O)O` (centres unmarked) belongs -4.39%; to `NC(=O)COC(=O)c1ccccc1Oc1ccccc1`, 12.1%; to `Cc1cc(Sc2nc(NC(C)C)nc(NC(C)C)n2)nc(Cl)n1`, -14%.

The values are drawn from PMC4336329 (PLoS ONE, 2015).
